According to the supplement of paper PMC10498489:
Screen size: about 2,300 compounds; about 330 (14%) showed activity.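 How the source made its calls: active = median modified Z-score above 1.96; inactive = 1.96 or below.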 The entries are a selection whose mix differs from that of the whole data set.

Test system: HepG2 Srxn1-GFP reporter cells (+30 nM CDDO-Me)
Assay: Srxn1-GFP intensity median modified Z-score relative to plate median; higher = stronger NRF2 / oxidative stress reporter activation, active = hit call of the paper
Details: 10 µM; exposure time: 24h
Summary of the method: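 In 96-well plates holding 20,000 HepG2 Srxn1-GFP BAC reporter cells per well, compound at 10 μM and an NRF2 activator at 30 nM were added together for 24 h, with DMSO at ≤0.1%, across three replicate plates. After fixation in formaldehyde and Hoechst staining, confocal images were analysed cell by cell for cytoplasmic GFP, and images containing under 100 cells were excluded. Values are replicate medians of the per-plate modified Z-score of GFP intensity, scaled by 1.4826 × median absolute deviation.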

Srxn1-GFP intensity median modified Z-score, inactive:
O=C(O)Cc1ccc(-c2ccccc2)cc1 [euspeclibcmpd926] -0.403
C=CC[S+]([O-])CC(N)C(=O)O (stereo not drawn) [euspeclibcmpd2346] -0.228
CCOC(=O)OC(C)OC(=O)C1N2C(=O)C(NC(=O)C(N)c3ccccc3)C2SC1(C)C (stereo not drawn) [euspeclibcmpd983] 0.627
Cc1ccc(N2CC(C(=O)NCCCn3ccnc3)CC2=O)c(F)c1 (stereo not drawn) 1.07
COc1ccc(-c2coc3cc(O)ccc3c2=O)cc1 [euspeclibcmpd1410] 0.0543
COc1cc2c(cc1OC)C1C(=O)c3c(O)cc4c(c3OC1CO2)C=CC(C)(C)O4 (stereo not drawn) [euspeclibcmpd1478] 1.56
CCOC(=O)N1CCC(=C2c3ccc(Cl)cc3CCc3cccnc32)CC1 [euspeclibcmpd600] 0.62
NC(=O)c1ccccc1O [euspeclibcmpd265] -0.32
NC[C@@H]1O[C@H](O[C@@H]2[C@@H](CO)OC(O[C@@H]3[C@@H](O)[C@H](N)C[C@H](N)[C@H]3O[C@H]3O[C@H](CO)[C@@H](O)[C@H](O)[C@H]3N)[C@@H]2O)[C@H](N)[C@@H](O)[C@@H]1O (stereo partly drawn) [euspeclibcmpd563] -0.129
COc1ccc(C(=O)CCC(=O)O)c2ccccc12 [euspeclibcmpd2372] -0.455
CC1=C(/C=C/C(C)=C/C=C/C(C)=C/C=C/C=C(C)/C=C/C=C(C)/C=C/C2=C(C)CCCC2(C)C)C(C)(C)CCC1 [euspeclibcmpd256] 1.65
CC(C(=O)O)c1ccc(CC2CCCC2=O)cc1 (stereo not drawn) [euspeclibcmpd1100] 0.299
O=C(O)CCc1nc(-c2ccccc2)c(-c2ccccc2)o1 [euspeclibcmpd734] -0.241
O=C1c2ccccc2C(=O)C1c1ccccc1 [euspeclibcmpd232] -0.321
Clc1ccc2c(c1)C(N1CCNCC1)=Nc1ccccc1O2 [euspeclibcmpd943] 0.369
OCCN1CCN(CCCN2c3ccccc3Sc3ccc(C(F)(F)F)cc32)CC1 [euspeclibcmpd361] -0.0321
CC(C)(Oc1ccc(CCNC(=O)c2ccc(Cl)cc2)cc1)C(=O)O [euspeclibcmpd432] 0.0401
c1ccc(CC2=NCCN2)cc1 [euspeclibcmpd297] 0.251
O=C(O)c1ccccc1-c1c2cc(I)c(=O)c(I)c-2oc2c(I)c(O)c(I)cc12 [euspeclibcmpd2143] 0.0355
Cc1ccc(N(CC2=NCCN2)c2cccc(O)c2)cc1 [euspeclibcmpd340] -0.737
CNC[C@@H](O)c1ccc(O)c(O)c1 [euspeclibcmpd110] -0.782
CC(C(=O)O)c1cccc(Oc2ccccc2)c1 (stereo not drawn) [euspeclibcmpd369] 0.111
Oc1ccc(C2CNCCc3c2cc(O)c(O)c3Cl)cc1 (stereo not drawn) [euspeclibcmpd2419] -0.876
CCn1cc(C(=O)O)c(=O)c2cc(F)c(N3CCNCC3)nc21 [euspeclibcmpd544] -0.382
CC(=O)OCC(=O)NCCCOc1cccc(CN2CCCCC2)c1 [euspeclibcmpd469] -0.0535
C=CCc1ccc(O)c(OC)c1 [euspeclibcmpd126] 1.3
CC(CCC(=O)O)[C@H]1CCC2C3C[C@H](O)[C@@H]4C[C@H](O)CC[C@]4(C)C3CC[C@@]21C (stereo partly drawn) [euspeclibcmpd1521] -0.0273
CN(C)c1cnccn1 [euspeclibcmpd1126] 0.45
C[Se]CC[C@H](N)C(=O)O [euspeclibcmpd2460] -0.84
c1ccc2c(c1)CCCC2C1=NCCN1 (stereo not drawn) [euspeclibcmpd289] -0.222
Cc1ncc([N+](=O)[O-])n1C [euspeclibcmpd1267] -0.381
C[C@](N)(Cc1ccc(O)cc1)C(=O)O [euspeclibcmpd2271] -0.309
Cc1cccc(C)c1NC(=O)c1ccccc1C(=O)O [euspeclibcmpd1175] 0.107
Nc1ccc(S(=O)(=O)NC(=O)c2ccccc2)cc1 [euspeclibcmpd272] -0.565
CNC[C@H](O)c1cccc(O)c1 [euspeclibcmpd236] -0.199
CCN(CC)CCNC(=O)c1ccc(NC(C)=O)cc1 [euspeclibcmpd945] -0.548
CN1C(=O)CC(C)(c2ccccc2)C1=O (stereo not drawn) [euspeclibcmpd788] -0.824
Cc1cn(C2CC(N=[N+]=[N-])C(CO)O2)c(=O)[nH]c1=O (stereo not drawn) [euspeclibcmpd435] 0.989

Srxn1-GFP intensity median modified Z-score, active:
Oc1c(Br)cc(Br)c2cccnc12 [euspeclibcmpd1032] 4.39
CC(C)C(C)/C=C/C(C)C1CCC2C3=CC=C4CC(O)CCC4(C)C3CCC21C (stereo not drawn) [euspeclibcmpd1597] 5.02
CC[C@]1(O)CC2CN(CCc3c([nH]c4ccccc34)[C@@](C(=O)OC)(c3cc4c(cc3OC)N(C)[C@H]3[C@@](O)(C(=O)OC)[C@H](OC(C)=O)[C@]5(CC)C=CCN6CC[C@]43[C@@H]65)C2)C1 (stereo partly drawn) [euspeclibcmpd320] 25.8
O=C(N/N=C/c1ccc([N+](=O)[O-])o1)c1ccc(Br)cc1 4.87
Cc1c(Cl)cccc1Nc1ccccc1C(=O)O [euspeclibcmpd1068] 4.04
COc1cc(O)c(C(=O)C=Cc2ccc(OC)c(O)c2)c(OC)c1 [euspeclibcmpd1967] 23.8
C1N2CN3CN1CN(C2)C3 [euspeclibcmpd187] 9.99
O=C1CC(c2ccccc2)Oc2ccccc21 (stereo not drawn) [euspeclibcmpd1376] 3.07
C=C(CC)C(=O)c1ccc(OCC(=O)O)c(Cl)c1Cl [euspeclibcmpd119] 14
O=C1C=CC(=C(c2ccc(O)cc2)c2ccc(O)cc2)C=C1 [euspeclibcmpd1770] 19.5
